The values below come from the antibiotic and cytotoxicity screens of Wong et al. (2023).

SMILES strings stand for the structures. The list shows a part of the results.

For one assay, the system named is HSkMC. Kind of assay: cytotoxicity call (relative viability < 0.9). The settings on record: 10 µM.
In a further assay the test system is HepG2. Kind of assay: cytotoxicity call (relative viability < 0.9). To be noted: 10 µM.
The next assay deals with S. aureus RN4220. Kind of assay: growth inhibition call (relative growth <= 0.2). The settings on record: 50 µM.

For `O=S(=O)(NCC[C@H]1CC[C@@H](NS(=O)(=O)c2cccc(Cl)c2)[C@@H](CO)O1)c1cccc(F)c1`, the cytotoxicity call with HSkMC and in the assay with HepG2 was “inactive” in each case. Further, in the assay with S. aureus RN4220, the growth inhibition call is “inactive”.

Consider `O=C(C[C@@H]1CC[C@H](NC(=O)c2cccnc2)[C@H](CO)O1)NCCN1CCCCC1`, for which the cytotoxicity call with HSkMC and in the assay with HepG2 was “inactive” throughout. Moreover, the growth inhibition call in the assay with S. aureus RN4220 was “inactive”.

For `O=C(C[C@@H]1C[C@@H]2c3cc(NC(=O)NC4CCCC4)ccc3O[C@@H]2[C@@H](CO)O1)NCc1ccc2c(c1)OCO2`, the cytotoxicity call in the assay with HSkMC and in the assay with HepG2 was “inactive” each time. In addition, in the assay on S. aureus RN4220, the growth inhibition call was “inactive”.

For the compound `Cc1noc(C)c1S(=O)(=O)Nc1ccc2c(c1)CC(=O)N([C@@H](C)CO)C[C@@H](C)[C@@H](CN(C)C(=O)NC(C)C)O2`, the cytotoxicity call in the assay on HSkMC and with HepG2 was “inactive” throughout. Besides, in the assay on S. aureus RN4220, the growth inhibition call is “inactive”.

Turning to `C[C@@H]1CN([C@@H](C)CO)C(=O)c2cc(NS(=O)(=O)c3cn(C)cn3)ccc2O[C@@H](C)CCCCO[C@@H]1CN(C)C(=O)Nc1cccc2ccccc12`, the cytotoxicity call in the assay with HSkMC and with HepG2 was “active” throughout. For the same compound, in the assay on S. aureus RN4220, the growth inhibition call is “inactive”.

`COc1ccc(S(=O)(=O)Nc2cccc3c2O[C@@H](CN(C)S(=O)(=O)c2ccc(OC)cc2)[C@H](C)CN([C@H](C)CO)C3=O)cc1`: the cytotoxicity call with HSkMC and with HepG2 was “inactive” throughout. The growth inhibition call in the assay on S. aureus RN4220 is “inactive”.

In the case of `NNC(=O)c1ccncc1`, in the assay on HSkMC (human skeletal muscle cells), the cytotoxicity call is “inactive”. In addition, the growth inhibition call in the assay with S. aureus RN4220 is “inactive”.

Take `C[C@H]1CN([C@@H](C)CO)C(=O)Cc2cc(NS(=O)(=O)c3ccccc3)ccc2O[C@H]1CN(C)S(=O)(=O)c1ccccc1`: the cytotoxicity call in the assay with HSkMC and in the assay with HepG2 was “inactive” in each case. Further, the growth inhibition call in the assay on S. aureus RN4220 is “inactive”.

For the compound `Cc1nn(CC(=O)O)c(=O)c2cccn12`, the cytotoxicity call in the assay with HSkMC and in the assay with HepG2 was “inactive” each time. Besides, the growth inhibition call in the assay with S. aureus RN4220 was “inactive”.

For the compound `C[C@H]1CN([C@@H](C)CO)C(=O)Cc2cc(NC(=O)C3CC3)ccc2O[C@@H]1CN(C)S(=O)(=O)c1cn(C)cn1`, the cytotoxicity call with HSkMC and with HepG2 was “inactive” throughout. The growth inhibition call with S. aureus RN4220 was “inactive”.
